Test results from paper PMC11995724, “Antibiotic target discovery by integrated phenotypic and activity-based profiling of electrophilic fragments” (Cell chemical biology, 2025).
Hit rate of the full screen: of about 3,200 compounds, about 75 (2%) showed an effect of 50% or more. The list shows a part of the results.

The compounds below were run on T1, S. aureus MSSA476. Conditions: relative growth, OD600, TSB; 25 µM; inhibitor.
T1 construct: MSSA476
Design: species or system S. aureus MSSA476 (TSB) or V. cholerae SAD30 (LB); 384-well bacterial growth screen at 25 uM, OD600 relative to DMSO control
`O=C(CCl)c1ccc(CC(=O)N2CCOCC2)s1` [10-H06, 2-chloro-1-{5-[2-(morpholin-4-yl)-2-oxoethyl]thiophen-2-yl}ethan-1-one] was tested, and the “% of control remaining” value was 118.75%. With `CC1CCc2c(sc(NC(=O)CCl)c2C(=O)OC(C)C)C1` (centres unmarked) [4-D07, propan-2-yl 2-(2-chloroacetamido)-6-methyl-4,5,6,7-tetrahydro-1-benzothiophene-3-carboxylate] the “% of control remaining” value was 128.061%. With `Cc1c(C=C(C#N)C(=O)Nc2nccs2)cc(C#N)n1C` [8-B18, 2-cyano-3-(5-cyano-1,2-dimethyl-1H-pyrrol-3-yl)-N-(1,3-thiazol-2-yl)prop-2-enamide] the “% of control remaining” value was 86.971%. For `O=C(CCl)N1CCC1c1cccc(F)c1` (centres unmarked) [5-K10, 2-chloro-1-[2-(3-fluorophenyl)azetidin-1-yl]ethan-1-one], the “% of control remaining” value was 105.647%. In the case of `C=CC(=O)NCCC(=O)N1CCc2cc(C)c([N+](=O)[O-])cc21` [3-F08, N-[3-(5-methyl-6-nitro-2,3-dihydro-1H-indol-1-yl)-3-oxopropyl]prop-2-enamide], the “% of control remaining” value is reported as 91.2495%. For `CC(Cl)C(=O)N(Cc1ccccc1)Cc1ccccc1` (centres unmarked) [5-K19, N,N-dibenzyl-2-chloropropanamide], the “% of control remaining” value was 103.097%. `O=C(CCl)N1c2ccc(F)cc2NC(=O)C12CCC2` [5-K09, 1'-(2-chloroacetyl)-6'-fluoro-3',4'-dihydro-1'H-spiro[cyclobutane-1,2'-quinoxalin]-3'-one] was tested, and the “% of control remaining” value was 107.468%. `O=C(CCl)NCc1ccccc1C(F)(F)F` [6-K10, 2-chloro-N-{[2-(trifluoromethyl)phenyl]methyl}acetamide] was tested, and the “% of control remaining” value was 112.341%. In the case of `COC(=O)c1c(-c2ccccc2Cl)csc1NC(=O)CCl` [4-F07, methyl 2-(2-chloroacetamido)-4-(2-chlorophenyl)thiophene-3-carboxylate], the “% of control remaining” value is reported as 109.767%. For `C=CC(=O)NCCc1ccn(-c2ccc(F)cc2)n1` [2-P03, N-{2-[1-(4-fluorophenyl)-1H-pyrazol-3-yl]ethyl}prop-2-enamide], the “% of control remaining” value was 95.3873%. With `C=CC(=O)Nc1ccc(C(=O)N2CCC(C)(C)S(=O)(=O)CC2)cc1` [3-E04, N-[4-(7,7-dimethyl-1,1-dioxo-1lambda6,4-thiazepane-4-carbonyl)phenyl]prop-2-enamide] the “% of control remaining” value was 106.226%. `CSc1cc(C(=O)CCl)ccc1NC(C)=O` [10-H08, N-[4-(2-chloroacetyl)-2-(methylsulfanyl)phenyl]acetamide] was tested, and the “% of control remaining” value was 79.6875%. In the case of `C=CC(=O)Nc1ccc(C(=O)NC2CCN(S(C)(=O)=O)CC2)cc1` [2-M21, N-(1-methanesulfonylpiperidin-4-yl)-4-(prop-2-enamido)benzamide], the “% of control remaining” value is reported as 120.801%. For `C=CC(=O)N1CCC(C(=O)NCc2nnc(C(C)C)n2C)CC1` [3-C16, N-{[4-methyl-5-(propan-2-yl)-4H-1,2,4-triazol-3-yl]methyl}-1-(prop-2-enoyl)piperidine-4-carboxamide], the “% of control remaining” value was 77.6665%. With `N#CC(=Cc1ccc(Cl)cc1)C(=O)Nc1nccs1` [8-C11, 3-(4-chlorophenyl)-2-cyano-N-(1,3-thiazol-2-yl)prop-2-enamide] the “% of control remaining” value was 98.5892%. `CC1CC1c1ccc(C=C(C#N)C(=O)Nc2ccc(C(=O)O)cc2)o1` (centres unmarked) [9-G16, 4-{2-cyano-3-[5-(2-methylcyclopropyl)furan-2-yl]prop-2-enamido}benzoic acid] was tested, and the “% of control remaining” value was 68.3146%. `Cc1cc(C)cc(-c2cc(NC(=O)CCl)n(-c3ccccc3)n2)c1` [4-K04, 2-chloro-N-[3-(3,5-dimethylphenyl)-1-phenyl-1H-pyrazol-5-yl]acetamide] was tested, and the “% of control remaining” value was 80.4192%. For `CC(Cl)C(=O)N1CCN(S(=O)(=O)c2ccccc2)CC1` (centres unmarked) [6-B12, 1-[4-(benzenesulfonyl)piperazin-1-yl]-2-chloropropan-1-one], the “% of control remaining” value was 105.512%. In the case of `O=C(CCl)N(CCCO)C1CCCc2ccccc21` (centres unmarked) [7-J14, 2-chloro-N-(3-hydroxypropyl)-N-(1,2,3,4-tetrahydronaphthalen-1-yl)acetamide], the “% of control remaining” value is reported as 102.355%. With `COc1ccc(C2=NN(C(=O)CCl)C(c3cccc(F)c3)C2)cc1` (centres unmarked) [6-P04, 2-chloro-1-[5-(3-fluorophenyl)-3-(4-methoxyphenyl)-4,5-dihydro-1H-pyrazol-1-yl]ethan-1-one] the “% of control remaining” value was 145.463%. In the case of `C=CCNC(=O)C(C#N)=Cc1cccc(C(F)(F)F)c1` [8-L09, 2-cyano-N-(prop-2-en-1-yl)-3-[3-(trifluoromethyl)phenyl]prop-2-enamide], the “% of control remaining” value is reported as 104.232%. With `Cc1cc(C)n(CC2CCN(C(=O)C(C)Cl)CC2)n1` (centres unmarked) [7-P17, 2-chloro-1-{4-[(3,5-dimethyl-1H-pyrazol-1-yl)methyl]piperidin-1-yl}propan-1-one] the “% of control remaining” value was 106.75%. In the case of `CCN(Cc1ccccc1)C(=O)CCl` [6-O21, N-benzyl-2-chloro-N-ethylacetamide], the “% of control remaining” value is reported as 79.9024%. For `C=CC(=O)N(C)CC(=O)N1CCCCC1c1nc(C)c(C)s1` (centres unmarked) [2-E20, N-{2-[2-(4,5-dimethyl-1,3-thiazol-2-yl)piperidin-1-yl]-2-oxoethyl}-N-methylprop-2-enamide], the “% of control remaining” value was 89.8172%. `COc1ccc(C=C(C#N)C(=O)NCc2ccccc2)cc1` [8-K19, N-benzyl-2-cyano-3-(4-methoxyphenyl)prop-2-enamide] was tested, and the “% of control remaining” value was 119.834%. For `Cc1cc(S(=O)(=O)N(C)C)cc(NC(=O)CCl)c1C` [4-H15, 2-chloro-N-[5-(dimethylsulfamoyl)-2,3-dimethylphenyl]acetamide], the “% of control remaining” value was 77.7513%. In the case of `CC(Cl)C(=O)Nc1ccc(Cl)cc1F` (centres unmarked) [4-C14, 2-chloro-N-(4-chloro-2-fluorophenyl)propanamide], the “% of control remaining” value is reported as 121.582%. `C=CC(=O)N1CCC(C(=O)OCC)(S(C)(=O)=O)CC1` [3-H04, ethyl 4-methanesulfonyl-1-(prop-2-enoyl)piperidine-4-carboxylate] was tested, and the “% of control remaining” value was 95.4288%. `C=CC(=O)NC(Cn1cncn1)c1ccccc1` (centres unmarked) [3-F17, N-[1-phenyl-2-(1H-1,2,4-triazol-1-yl)ethyl]prop-2-enamide] was tested, and the “% of control remaining” value was 118.415%. For `C=CC(=O)NCC(O)c1ncccc1OC` (centres unmarked) [2-J11, N-[2-hydroxy-2-(3-methoxypyridin-2-yl)ethyl]prop-2-enamide], the “% of control remaining” value was 89.4691%. `C=CC(=O)N1CCC(NC(=O)Nc2ccccc2OC)CC1` [1-K13, 3-(2-methoxyphenyl)-1-[1-(prop-2-enoyl)piperidin-4-yl]urea] was tested, and the “% of control remaining” value was 120.615%. In the case of `CC(=O)NC1Cc2ccccc2N(C(=O)CCl)C1` (centres unmarked) [5-M20, N-[1-(2-chloroacetyl)-1,2,3,4-tetrahydroquinolin-3-yl]acetamide], the “% of control remaining” value is reported as 102.732%. With `COc1ccc(C(=O)C(C)Cl)cc1` (centres unmarked) [10-H22, 2-chloro-1-(4-methoxyphenyl)propan-1-one] the “% of control remaining” value was 105.938%. For `COc1ccc(C=C(C#N)C(=O)Nc2ccc(Cl)c(Cl)c2)cc1` [8-C03, 2-cyano-N-(3,4-dichlorophenyl)-3-(4-methoxyphenyl)prop-2-enamide], the “% of control remaining” value was 94.2739%. In the case of `C=CC(=O)N[C@H]1C[C@H](S(C)(=O)=O)C1` [3-D18, N-[(1r,3r)-3-methanesulfonylcyclobutyl]prop-2-enamide], the “% of control remaining” value is reported as 110.405%. For `CS(=O)(=O)N1CCC(N(CC(F)F)C(=O)CCl)CC1` [5-O12, 2-chloro-N-(2,2-difluoroethyl)-N-(1-methanesulfonylpiperidin-4-yl)acetamide], the “% of control remaining” value was 89.9818%. With `C=CC(=O)N(C)Cc1ccnn1CC` [1-F07, N-[(1-ethyl-1H-pyrazol-5-yl)methyl]-N-methylprop-2-enamide] the “% of control remaining” value was 110.418%. `C=CC(=O)NCc1ccnc(N2CCN(c3ccc(F)cc3)CC2)c1` [1-M11, N-({2-[4-(4-fluorophenyl)piperazin-1-yl]pyridin-4-yl}methyl)prop-2-enamide] was tested, and the “% of control remaining” value was 84.7473%. `N#CC(=Cc1ccc(-c2ccc(Cl)cc2)o1)C(=O)NC1CC1` [9-K16, 3-[5-(4-chlorophenyl)furan-2-yl]-2-cyano-N-cyclopropylprop-2-enamide] was tested, and the “% of control remaining” value was 86.8914%. `N#CC(=Cc1ccc(OC(F)F)cc1)C(=O)Nc1nccs1` [8-F14, 2-cyano-3-[4-(difluoromethoxy)phenyl]-N-(1,3-thiazol-2-yl)prop-2-enamide] was tested, and the “% of control remaining” value was 95.6017%. For `CC(Cl)C(=O)Nc1ccccc1C(=O)c1ccccc1` (centres unmarked) [6-G10, N-(2-benzoylphenyl)-2-chloropropanamide], the “% of control remaining” value was 105.854%. For `CC(Cl)C(=O)NCCC1=CCCCC1` (centres unmarked) [6-E11, 2-chloro-N-[2-(cyclohex-1-en-1-yl)ethyl]propanamide], the “% of control remaining” value was 91.8537%. For `N#CC(=Cc1ccc(F)cc1)C(=O)Nc1ccccc1C(F)(F)F` [8-I18, 2-cyano-3-(4-fluorophenyl)-N-[2-(trifluoromethyl)phenyl]prop-2-enamide], the “% of control remaining” value was 106.888%. `C=CC(=O)Nc1nc(-c2cccs2)cs1` [1-D08, N-[4-(thiophen-2-yl)-1,3-thiazol-2-yl]prop-2-enamide] was tested, and the “% of control remaining” value was 97.0549%.
